# Reference: ChEMBL document CHEMBL4888484, “Replenishing the malaria drug discovery pipeline: Screening and hit evaluation of the MMV Hit Generation Library 1 (HGL1) against asexual blood stage Plasmodium falciparum ,using a nano luciferase reporter read-out” (2022)
# Among all 150,000 compounds or so, about 540 (0.36%) showed an effect of 50% or more. The list shows a part of the results.
# Test system: Plasmodium falciparum
# Experiment: Primary screen in NF54 nanoGlo assay, in single point, at 2uM, 72h; a lower Z score goes with more inhibition
# Format: functional, Erythrocyte
# Details: timepoint 72 hour
SMILES,% Inhibition,Z score
CC1(C)OCCC1CNC(=O)N[C@H]1CC[C@@H](C(=O)N2CCCCC2)C1 (stereo partly specified),-4%,0.57
Cc1ccc(N2N=C(C(=O)N3CCN(S(=O)(=O)c4ccc(F)cc4F)CC3)NCC2=O)cc1,27%,-3.32
Cc1ccccc1CC1(NC(=O)c2ccccc2-c2nnn[nH]2)CC1,-4%,0.41
c1ccc(CC2CCN(c3nc4ccccc4c4nncn34)CC2)cc1,-5%,0.46
CCN(CCO)C(=O)c1ccc(-c2ccc(-c3nccn3C)nn2)cc1,-8%,1.49
OC1CC(c2cc(N3CCC(OCc4cccnc4)CC3)ncn2)C1 (stereo unspecified),-13%,1.23
COCCN(CCC#N)c1ncnc2c1ncn2CC1(O)CCOC1C (stereo unspecified),3%,-0.39
Cc1nc2ccc(NC(=O)c3ccncc3)cc2[nH]1,-12%,1.51
Cn1c(-c2ccccc2)nnc1N1CC[C@H](Oc2cccc(F)c2)C1,-13%,2.09
CC(C)Cc1noc([C@H]2CCCN(c3ncnc4c3CCNCC4)C2)n1,-13%,2.54
Cn1c(=O)n(C)c2cc(N3CCCC3)c(N)cc21,-16%,1.44
Cc1ccc(OCCS(=O)(=O)NC[C@H]2CNCCO2)cc1,-10%,0.94
COC1([C@H](C)NC(=O)C2CC(=O)C2)CCC1,6%,-0.77
COc1cc2c(cc1CN1CCN[C@H](C(=O)N3CCCC3)C1)OCCCO2,-6%,1.07
Cc1cc(CN(C)CCc2ccncc2)c(C)o1,-11%,1.75
c1cc(N=C(NC2CCCCC2)NC2CCCCC2)ccc1N=C(NC1CCCCC1)NC1CCCCC1,3%,-0.35
CNC(=O)c1cc(Br)ccc1NCC[C@H]1CCCO1,0%,0.03
O=C(CCc1cc(Cl)cs1)NC[C@H]1CS(=O)(=O)CCO1,-5%,0.76
O=C(O)C1C2CCCC2CN1S(=O)(=O)c1ccc(F)c(Cl)c1 (stereo unspecified),-8%,1.22
CCC(C)CS(=O)(=O)NC(=O)C1CC1C (stereo unspecified),2%,-0.26
Cc1cccc(NC(=O)N2C[C@H](CO)[C@@H](C(F)(F)F)C2)c1F,-6%,1.18
COc1ccccc1CNC(=O)Cn1c(=O)ccc2cc(S(=O)(=O)N3CCC(C)CC3)ccc21,-8%,1.05
CCc1ccc2ncn([C@@H](CC)Cn3ccnc3)c(=O)c2c1,-9%,0.99
CCOC[C@@H](O)CN(Cc1c(C(C)C)nn(-c2ccccc2)c1Oc1cccc(F)c1)CC1CC1,-13%,1.67
Nc1nc([C@H]2CCCN(CCCc3c(F)cccc3F)C2)n[nH]1,-7%,1.41
COC1CCCC(CC(=O)N(Cc2ccco2)c2ccccn2)C1 (stereo unspecified),3%,-0.52
COCc1cn(C2CCN(c3ncccc3C(N)=O)CC2)nn1,-13%,1.35

SMILES,% Inhibition,Z score
O=C(NCc1cccnc1)C1Cc2cc(C(F)(F)F)ccc2N2CCCCC12 (stereo unspecified),-13%,1.83
O=C(c1n[nH]c2ccccc12)N1CCC[C@H]1c1ccncc1,-2%,0.38
Cc1cc(C)n(-c2ccc(CNC(=O)c3nn(-c4ccccc4)c(C)cc3=O)c(C(F)(F)F)c2)n1,4%,-0.67
COc1cccc(COC[C@@H](O)CN2CCOC3(CCCCC3)C2)c1,1%,-0.14
O=C(O)[C@H]1CC[C@H](C(=O)NCCc2ccccc2)CC1,-7%,1.35
Cc1onc(-c2ccccc2)c1C(=O)N(C(=O)c1c(-c2ccccc2)noc1C)c1ccccn1,1%,-0.1
O=C(CCCc1ccc(F)c(F)c1)NCCc1cscn1,-4%,0.61
C[C@@H](NC(=O)c1ccc(S(C)(=O)=O)s1)c1ncc[nH]1,2%,-0.47
O=S(=O)(NCc1nc(C2CCOCC2)no1)c1ccc(-n2cccn2)cc1,-16%,1.99
Cc1nnc(-c2nnc(NCc3cccnc3)c3ccccc23)o1,4%,-0.81
O=C(CCc1nc2ccccc2s1)N1CCC[C@H](Nc2ccc3c(c2)OCCO3)C1,-12%,2.25
Cc1noc(C)c1Cc1nc(CC(N)=O)nn1C1Cc2ccccc2C1,-26%,2.32
CC(=O)Nc1cccc(-c2noc(C3CCC3)n2)c1,-12%,2.08
CC(C)Nc1cc(-c2cncnc2)nc(N)n1,-6%,0.94
CNC(=O)[C@@H]1CN(C(=O)c2c[nH]c3ccccc23)C[C@H]1CO,3%,-0.5
O=C1N[C@@H](CC(=O)N2CCN(Cc3ccccc3Cl)CC2)C(=O)Nc2ccccc21,4%,-0.48
Cc1occc1C(=O)N1CCC2(CC1)CC(=O)N(C/C=C/c1ccccc1)C2,2%,-0.33
Cc1ccc(CN[C@H]2C[C@H]3C(=O)N4CCC[C@@H]4C(=O)N3C2)cc1F,-4%,0.47
O=C(Cn1c(=O)n(Cc2ccccc2F)c(=O)c2sccc21)Nc1cc(F)cc(F)c1,7%,-0.85
O=C(CN1CCN(Cc2cccc(Cl)c2)C1=O)NC1CC1,43%,-5.73
COc1ccc(-n2nc3nc(N4CCCC4)nc(-c4cccc(F)c4)c3c2N)cc1,8%,-0.81
Cc1cc(CN(C)Cc2cc(C(=O)O)sc2C)no1,-6%,0.98
COc1ccc(N2CCN(C(=O)CNc3ccc(OC)c(N4CCOC4=O)c3)CC2)cc1,5%,-1.1
CC[C@@H](CO)N(Cc1cscn1)c1ccccc1,-9%,0.94
CC1CN(Cc2cccc3c2OCCO3)CC(C)S1(=O)=O (stereo unspecified),-5%,0.77
C[C@H](Nc1ccccc1NC(=O)CN1CC(=O)N(C)C1=O)c1ccccc1,-4%,0.57
